Experimental data reported in the supplement of paper PMC12217912.
The other results are listed elsewhere or left out. Sequences were assembled here from the parent chain. Values near 0.05 are background.

B1: TEV protease; numbered along this chain (parent)
chain: MGESLFKGPRDYNPISSSICHLTNESDGHTTSLYGIGFGPFIITNKHLFRRNNGTLVVQSLHGVFKVKDTTTLQQHLVDGRDMIIIRMPKDFPPFPQKLKFREPQREERICLVTTNFQTKSMSSMVSDTSCTFPSGDGIFWKHWIQTKDGQCGSPLVSTRDGFIVGIHSASNFTNTNNYFTSVPKNFMELLTNQEAQQWVSGWRLNADSVLWGGHKVFMVKPEEPFQPVKEATQL

Variants of: B1
Assay: raw area under fraction-flipped curve 0-4 h after induction (AUC4h, not background-subtracted), DNA-recorder readout of cleavage of the substrate (dimensionless); higher = more cleavage of the substrate by the protease variant
Conditions: temperature: 34 °C; time window: 0-4 h after rhamnose induction
Method: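 In vivo DNA recorder in E. coli TOP10(DE3) ΔrhaA at 34 °C. Each TEVp single-site mutant (parent TEVp 0) is paired with a single-site variant of the 7-mer TEVs (canonical ENLYFQ|S). The substrate sits between flexible linkers in a Bxb1-sfGFP-TEVs-SsrA fusion, so cleavage stabilises Bxb1 and speeds flipping of a recombination array, read by NGS. The value is the raw area under the fraction-flipped curve over 0-4 h after rhamnose induction (AUC4h), with ≥20 reads per time point. It is not background-subtracted; inactive controls average about 0.047.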
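Note: Bxb1 expression induced with 0.2% (w/v) L-rhamnose at OD600 near 0.5, cultures sampled hourly, flipped fraction per protease–substrate barcode pair counted by paired-end Illumina sequencing.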

Row | Variant | area with substrate ENLAFQS | area with substrate ENLDFQS | area with substrate ENLEFQS | area with substrate ENLFFQS | area with substrate ENLHFQS | area with substrate ENLKFQS | area with substrate ENLLFQS | area with substrate ENLNFQS | area with substrate ENLPFQS | area with substrate ENLSFQS | area with substrate ENLVFQS | area with substrate ENLCFQS | area with substrate ENLGFQS | area with substrate ENLIFQS | area with substrate ENLMFQS | area with substrate ENLQFQS | area with substrate ENLRFQS | area with substrate ENLWFQS | area with substrate ENLTFQS
1 | P228N | 0.0698 | 0.045 | 0.0652 | 0.0765 | 0.0908 | 0.0828 | 0.078 | 0.0604 | 0.0665 | 0.0702 | 0.0771 | – | – | – | – | – | – | – | –
2 | E231G | 0.0475 | 0.0786 | 0.0547 | 0.095 | 0.0705 | 0.0754 | 0.0836 | 0.0651 | – | 0.0584 | – | 0.0704 | 0.0657 | 0.0869 | 0.073 | 0.127 | 0.0702 | 0.074 | –
3 | K216L | 0.0476 | 0.0666 | – | – | 0.0621 | 0.0701 | 0.0659 | 0.0826 | – | – | – | 0.0519 | 0.04 | – | 0.0836 | 0.059 | – | – | –
4 | T176L | 0.0552 | 0.0703 | 0.0642 | 0.0722 | 0.0628 | 0.0644 | 0.0555 | – | 0.0626 | – | 0.0468 | – | 0.0547 | – | 0.074 | 0.0572 | – | 0.0543 | –
5 | N178I | 0.0574 | 0.0684 | – | – | – | – | – | – | – | – | – | – | – | – | – | – | – | 0.0493 | 0.0742
6 | F180I | 0.0664 | 0.0588 | 0.0602 | 0.0448 | 0.0114 | – | 0.0571 | 0.0556 | 0.044 | 0.0664 | 0.0668 | 0.046 | 0.0981 | 0.0611 | – | 0.0576 | – | – | –
7 | N177V | 0.0793 | 0.0591 | – | 0.131 | 0.0645 | 0.0972 | – | 0.0498 | 0.0771 | – | 0.166 | 0.0844 | – | 0.0961 | – | 0.0739 | – | – | –
8 | V217N | 0.0866 | 0.0484 | 0.077 | 0.0745 | 0.061 | 0.0529 | 0.041 | 0.0695 | 0.0724 | – | 0.0922 | 0.055 | 0.0681 | – | 0.0648 | – | 0.0794 | 0.0568 | 0.0811
9 | V217H | 0.0682 | 0.0625 | – | – | 0.0542 | 0.065 | 0.0213 | 0.064 | 0.0578 | 0.0474 | – | 0.0672 | – | 0.0579 | – | – | – | – | 0.0445
10 | M219Q | 0.0514 | 0.0656 | 0.0538 | 0.0777 | 0.0567 | 0.0613 | – | 0.0812 | 0.0671 | 0.0483 | – | 0.0673 | 0.0386 | 0.0719 | – | 0.0322 | 0.0654 | – | –
11 | M219D | 0.0634 | 0.0619 | 0.0656 | 0.065 | 0.0519 | 0.0584 | 0.0529 | 0.0643 | 0.0602 | 0.0565 | – | 0.0643 | 0.0628 | 0.0595 | 0.0652 | – | 0.0624 | 0.0647 | –
12 | V183C | 0.056 | – | 0.0589 | 0.078 | 0.0712 | 0.0857 | 0.0648 | 0.0709 | 0.0664 | 0.0643 | 0.123 | 0.0574 | – | – | 0.0866 | 0.0639 | 0.0768 | 0.0599 | –
13 | Q194S | 0.0515 | 0.0681 | – | 0.0898 | – | 0.0844 | 0.0812 | 0.0819 | 0.0705 | 0.0658 | – | – | – | 0.092 | – | 0.0768 | – | 0.0957 | –
14 | G202N | 0.0668 | 0.072 | – | 0.0604 | – | 0.0551 | 0.0724 | – | – | – | – | – | 0.0865 | – | – | 0.0463 | 0.0518 | 0.0382 | 0.0998
15 | G202S | 0.0712 | 0.0589 | – | 0.0694 | 0.0794 | 0.0632 | 0.0711 | 0.0722 | 0.0485 | 0.0659 | – | – | – | 0.0512 | – | – | 0.0525 | 0.0717 | –
16 | V200E | 0.0585 | 0.0667 | – | 0.0578 | – | – | – | 0.0972 | – | – | – | – | – | – | – | – | – | 0.0664 | 0.0234
17 | K221N | 0.063 | 0.0621 | 0.062 | 0.0814 | 0.0649 | 0.0824 | – | 0.0557 | 0.0626 | 0.0551 | 0.0706 | 0.0558 | – | – | – | 0.0607 | 0.0772 | – | –
18 | K221Y | 0.0699 | 0.0507 | – | 0.0769 | 0.0764 | 0.0903 | – | 0.0538 | 0.063 | 0.0666 | 0.0849 | 0.0672 | 0.0704 | – | 0.0507 | 0.0698 | 0.069 | 0.0502 | 0.0553
19 | G214M | 0.0439 | – | 0.0646 | 0.0627 | 0.065 | 0.0644 | 0.0636 | 0.0607 | 0.0571 | 0.0443 | – | – | – | – | 0.0666 | – | – | – | –
20 | G214K | 0.0623 | 0.06 | 0.089 | 0.0615 | – | 0.0732 | – | 0.072 | 0.0585 | 0.0739 | – | 0.0757 | 0.0622 | – | 0.0665 | 0.0622 | 0.0599 | – | 0.0763
21 | G214V | 0.0667 | 0.0417 | 0.0627 | 0.0633 | 0.0648 | 0.0497 | 0.0542 | 0.063 | 0.0596 | 0.0594 | – | 0.0447 | – | – | – | 0.0695 | – | 0.0218 | –
22 | S201P | 0.0609 | – | 0.0624 | 0.0648 | – | – | – | 0.0667 | 0.0589 | – | 0.0687 | 0.0598 | – | – | 0.0686 | 0.0722 | 0.0757 | 0.0595 | 0.0795
23 | A196N | 0.0772 | 0.0662 | – | 0.126 | 0.0611 | 0.0818 | 0.065 | 0.0495 | 0.0495 | 0.0548 | – | 0.0874 | 0.0639 | – | 0.0567 | – | 0.075 | – | –
24 | Q227P | 0.0782 | 0.0516 | – | 0.1 | 0.0742 | 0.0768 | 0.0522 | 0.0599 | 0.0497 | 0.071 | – | – | 0.0519 | – | 0.0667 | – | – | 0.0832 | –
25 | Q227E | 0.0777 | 0.0578 | 0.0653 | – | – | 0.0407 | 0.0791 | 0.0502 | 0.0602 | 0.0562 | 0.0894 | 0.0616 | – | – | 0.0796 | 0.153 | 0.0544 | 0.0596 | –
26 | Q227M | 0.0455 | 0.0687 | 0.0617 | 0.0972 | 0.0643 | 0.0785 | – | 0.0606 | 0.0369 | 0.0654 | – | – | – | 0.103 | – | 0.0708 | 0.0737 | – | 0.071
27 | S171G | 0.0599 | 0.0599 | – | 0.0647 | – | 0.0567 | – | – | – | – | 0.0739 | – | 0.0496 | – | – | – | – | – | –
28 | T181G | 0.0589 | 0.085 | 0.0536 | 0.0702 | 0.0676 | 0.0665 | – | 0.066 | 0.0526 | – | – | 0.0851 | – | – | – | 0.062 | 0.0485 | 0.0696 | –
29 | G213Y | 0.0556 | 0.0755 | – | 0.062 | 0.0607 | 0.0613 | 0.0526 | 0.0616 | 0.0651 | 0.0482 | – | 0.0654 | 0.0839 | – | – | – | 0.0628 | – | –
